Laboratory results from PubChem BioAssay AID624296 (National Center for Advancing Translational Sciences (NCATS), 2012).
About 9,900 (2.8%) of roughly 350,000 compounds were called active. The inconclusive results got no clear call from the source; some entries with a clear call stand among them for comparison. Calls come from the whole dose curve; as a rule, active = well fitted activation curve with a large enough effect; inconclusive = small, poorly fitted or top-dose-only effect; inactive = no such curve, though single readings can be large or run the other way. Potencies of inconclusive entries are left out as doubtful fits.

Assay: A quantitative high throughput screen for small molecules that induce DNA re-replication in MCF 10a normal breast cells. For activity, positive = re-replication: % of control where 0% means no effect. Note: nearly all actives have a fitted effect of over 50% in size.
Details: MCF 10A DNA re-replication, Hoechst nuclear intensity, 48 h; activity, positive = re-replication: at 46.1 µM (top of the series)
Potency is the fitted concentration of half-maximal effect; tags give direction and shape of the fitted curve.

| Compound | Potency | activity, positive = re-replication |
| --- | --- | --- |
| COc1ccc(CNS(=O)(=O)c2ccc3c(c2)N(C(C)=O)CC(C)S3)cc1 (stereo unspecified) | inconclusive [activator, single point] |  |
| COc1ccccc1NC(=O)CCN1C(=O)/C(=C\c2cc(OC)c(OC)c(OC)c2)SC1=S |  | inactive: 0.994% |
| CCOc1ccc(C(=O)/C=C/c2ccc(SC)cc2)cc1 | inconclusive [activator, single point] |  |
| CN=CC1=C(O)c2ccccc2C1=O | active: 13 µM |  |
| Cc1nc2ccc(NC(=O)NCCCO)cc2s1 |  | inactive: -2.71% |
| O=C(C1CCN(Cc2ccc(F)cc2)CC1)N(CCc1ccccc1)Cc1ccccc1 | inconclusive [activator, partial curve, poor fit] |  |
| C=CCNC(=S)N/N=C/c1ccc(OCc2ccccc2Cl)cc1 | inconclusive [activator, partial curve, poor fit] |  |
| CCOc1cc2[nH]c(=S)n(CCCN3CCOCC3)c(=O)c2cc1OCC |  | inactive: 13.1% |
| CCn1nc(C)cc1C(=O)Sc1ccc(Cl)cc1Cl | inconclusive [activator, partial curve, poor fit] |  |
| O=[N+]([O-])c1cc(/C=N/N2CCCCC2)ccc1Cl |  | inactive: -0.63% |
| CC1CCN(c2ncnc3c2cnn3-c2ccccc2)CC1 |  | inactive: 19.4% |
| CCn1c(COc2ccc(Cl)cc2)nnc1SC1CCc2ccccc2C1=O (stereo unspecified) | inconclusive [activator, single point] |  |
| O=C(c1ccco1)N1CCN(c2ncnc3c2[nH]c2ccc(Br)cc23)CC1 | inconclusive [activator, single point] |  |
| Cc1cc(NCC2CCCO2)n2c(nc3ccccc32)c1C#N (stereo unspecified) | inconclusive [activator, single point] |  |
| COc1cc(C(=O)OCC(=O)N2c3ccccc3NC(=O)C2(C)C)ccc1OCC(C)C | inconclusive [activator, single point] |  |
| O=C(NCCCN1CCOCC1)c1ccc2c(=O)n(Cc3ccc(Cl)cc3)c(=S)[nH]c2c1 | inconclusive [activator, partial curve, poor fit] |  |
| CCNC(=S)Nc1cc(OCC)c(NC(=O)c2ccco2)cc1OCC |  | inactive: 2.96% |
| O=S(=O)(c1ccc2[nH]c3c(c2c1)CCCC3)N1CCCCC1 | inconclusive [activator, single point] |  |
| Cc1cccc(NS(=O)(=O)c2cc3c4c(c2)CCN4C(=O)CC3)c1C |  | inactive: -0.29% |
| O=S(=O)(c1ccc(N2CCC(c3ccc(Cl)cc3)=N2)cc1)N(CCO)CCO | inconclusive [activator, full curve, poor fit] |  |
| Cn1c(=O)[nH]c(=O)c2c1nc(SCC(=O)O)n2Cc1ccccc1 |  | inactive: 24.1% |
| Cc1ccccc1N(CC(=O)NC1CCCCC1)C(=O)c1csnn1 | inconclusive [activator, single point] |  |

| Compound | Potency | activity, positive = re-replication |
| --- | --- | --- |
| O=C1CCN(CCc2ccccc2)CCN1[C@H](CSc1ccccc1)Cc1ccccc1 | inconclusive [activator, single point] |  |
| CC(=O)c1c(C)[nH]c(C(=O)Nc2nc(-c3ccc(-c4ccccc4)cc3)cs2)c1C | active: 3.26 µM |  |
| Cc1ccc(S(=O)(=O)N(CCCc2c(C)nc[nH]c2=O)c2ccccc2)cc1 |  | inactive: 2.93% |
| Cc1ccccc1-c1nnc(SCC(=O)N2CCCC2)o1 |  | inactive: -3.9% |
| Nc1nc(Nc2ccc(Cl)cc2)nc(NCc2ccco2)c1[N+](=O)[O-] | inconclusive [activator, single point] |  |
| CN1CC(c2ccccc2Cl)C2(COc3ccccc3C2=O)C12C(=O)Nc1ccccc12 (stereo unspecified) | inconclusive [activator, single point] |  |
| CCCCCCCCOC(=O)c1c(CSC(=N)N)n(C)c2cc(Br)c(OC(C)=O)cc12 | active: 3.26 µM |  |
| O=C(O)CCCCCCCCc1cn(CC2CCCCC2)nn1 |  | inactive: 5.15% |
| COc1ccc(C2/C=C\CN(C(=O)C3CCCC3)[C@H](Cc3ccccc3)C(=O)N2Cc2ccc(F)cc2)cc1 (stereo partly specified) | inconclusive [activator, full curve, poor fit] |  |
| COc1ccc(CN(C)CCCn2cnc3c(OCc4ccccc4)ncnc32)cc1OC | inconclusive [activator, full curve, poor fit] |  |
| Nc1nc(-c2ccc(-n3nncc3-c3ccco3)cc2)cs1 | active: 23.1 µM |  |
| C=C(C)COc1ccc(-c2ncnc(C(F)(F)F)c2-c2ccc(OC)cc2)c(O)c1 | inconclusive [activator, single point] |  |
| CCC(C)c1ccccc1N1CC(C(=O)N(C)CC(=O)Nc2cccc(F)c2)CC1=O (stereo unspecified) |  | inactive: -18.7% |
| O=C(O)C1CCCN(S(=O)(=O)c2ccccc2[N+](=O)[O-])C1 (stereo unspecified) |  | inactive: -6.84% |
| Cc1ccc(C)c(N2CCN(C(=O)CCCCCn3c(=S)[nH]c4ccc(N5CCOCC5)cc4c3=O)CC2)c1 | inconclusive [activator, full curve, poor fit] |  |
| Cc1cc(C(=O)NCCN2C(=O)S/C(=C\c3cccs3)C2=O)ccc1[N+](=O)[O-] | inconclusive [activator, partial curve, poor fit] |  |
| COc1ccc(CCNC(=O)c2coc3ccccc3c2=O)cc1OC | inconclusive [activator, partial curve] |  |
| Cc1sc2nc(CN(Cc3cccs3)C(=O)NC3CCCCC3)[nH]c(=O)c2c1C | inconclusive [activator, single point] |  |
| CO[C@H]1C[C@@H]2CC[C@@H](C)[C@@](O)(O2)C(=O)C(=O)N2CCCC[C@H]2C(=O)O[C@H]([C@H](C)C[C@@H]2CC[C@@H](OC(=O)C(C)(CO)CO)[C@H](OC)C2)CC(=O)[C@H](C)/C=C(\C)[C@@H](O)[C@@H](OC)C(=O)[C@H](C)C[C@H](C)/C=C/C=C/C=C/1C |  | inactive: 3.65% |
| Cc1ccc2cc(CCNC(=O)c3cccc([N+](=O)[O-])c3)c(=O)[nH]c2c1 |  | inactive: -1.52% |
| O=C(NCC(c1ccco1)N1CCN(c2ccccc2F)CC1)c1cccs1 (stereo unspecified) |  | inactive: 13.9% |
| CCCCCCNC(=O)CCc1nc2cccnc2n1Cc1ccc(OC)cc1 | inconclusive [activator, single point] |  |

| Compound | Potency | activity, positive = re-replication |
| --- | --- | --- |
| CC(C)[C@H]1C(=O)Nc2ccccc2N1C(=O)N[C@@H](Cc1ccccc1)C(=O)N[C@@H](Cc1ccccc1)C(=O)O | inconclusive [activator, full curve, poor fit] |  |
| CC(C)(C)c1nc(NC(=O)Nc2ccccc2)sc1Br | inconclusive [activator, single point] |  |
| CC(C)OC(=O)c1cc2c(ccn2C)n1CC(=O)N1CCC(Cc2ccccc2)CC1 | inconclusive [activator, single point] |  |
| CCCOc1ccc(-c2c(C(=O)N/N=C/c3ccccc3OCC)nnn2-c2nonc2N)cc1 |  | inactive: 0.418% |
| COC(=O)C1=C(C)N(C)C(C)=C(C(=O)OC)C1c1cccc(Br)c1 | inconclusive [activator, single point] |  |
| O=C(N/N=C/C=C/c1ccccc1)C(O)c1ccccc1 (stereo unspecified) | inconclusive [activator, partial curve, poor fit] |  |
| O=C(NC(=S)N1CCN(c2nc(-c3ccccc3)cs2)CC1)c1cncc(Br)c1 | active: 20.6 µM |  |
| O=C(CN1CC(c2ccccc2)CC1=O)N/N=C/c1cc(Br)ccc1O (stereo unspecified) | inconclusive [activator, partial curve, poor fit] |  |
| O=[N+]([O-])c1ccccc1-c1cc(-c2cc(Cl)ccc2O)n[nH]1 | inconclusive [activator, single point] |  |
| CCCCN(CCCC)S(=O)(=O)c1ccc(OC)c2ncccc12 | inconclusive [activator, partial curve, poor fit] |  |
| O=C1C(Cc2ccccc2)C(c2ccccc2)N1c1ccccc1 (stereo unspecified) | inconclusive [activator, partial curve] |  |
| COc1ccc(-c2csc(NC(C)c3nc4cc(Cl)c(N5CCCCC5)cc4n3CCOCCO)n2)cc1 (stereo unspecified) |  | inactive: 19.4% |
| CN(C)S(=O)(=O)c1cccc(NC(=O)COc2ccc3ccccc3c2)c1 | inconclusive [activator, single point] |  |
| C[C@@H](CSc1ccc(Br)cc1)CN1CC[C@H](NC(=O)OCc2ccccc2)CCC1=O | inconclusive [activator, partial curve, poor fit] |  |
| N/C(=N\S(=O)(=O)c1cc(C(F)(F)F)cc(C(F)(F)F)c1)c1cccs1 | inconclusive [activator, single point] |  |
| Cc1ccc(OC(C)C(=O)Nc2ccc3c(c2)n(C)c(=O)n3C)c(C)c1 (stereo unspecified) | inconclusive [activator, single point] |  |
| Cc1ccc(C)c(S(=O)(=O)N(C(=O)c2ccncc2)c2ccc(OC(=O)c3ccncc3)cc2)c1 | inconclusive [activator, partial curve, poor fit] |  |
| COc1cc(OC)cc(C(=O)Nc2ccccc2C(=O)NC2CC2)c1 | inconclusive [activator, single point] |  |
| CCCN1CCn2c3c(c4cc(Br)ccc42)CCCC31 (stereo unspecified) | active: 23.1 µM |  |
| O=C(O)c1ccc(-n2cccn2)nc1 | inconclusive [activator, single point] |  |
| Cc1cc(S(=O)(=O)N2CCN(CC(=O)N(C)Cc3ccccc3)CC2)ccc1Br |  | inactive: 14.4% |
| Cc1cccc(CN2CCN(Cc3cccc(-n4cccn4)c3)CC2CCO)n1 (stereo unspecified) | inconclusive [activator, single point] |  |
